Assay results reported in PubChem BioAssay AID1645882 (National Center for Advancing Translational Sciences (NCATS), 2021).
In all, about 16,000 compounds went through this assay and about 120 (0.75%) were called active. Not shown: some 4% with an inconclusive outcome. Calls come from the whole dose curve; as a rule, active = well fitted inhibition curve with a large enough effect; inconclusive = small, poorly fitted or top-dose-only effect; inactive = no such curve, though single readings can be large or run the other way. Some of the results follow. Where a SMILES comes first, the peptide text is derived from it. The star is where a group is joined. Cbz = O=C(OCc1ccccc1)*

Biological target: Rap guanine nucleotide exchange factor 3 (Homo sapiens) (UniProt O95398)
Assay: Validation qHTS for antagonist of cAMP-regulated guanine nucleotide exchange factor 3 (EPAC1);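 note: plate controls were DMSO for no effect and ATA control for full effect; nearly all actives have a fitted effect of over 75% in size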
Conditions: EPAC1 Rap1B-BODIPY-GDP exchange, fluorescence; series mostly up to 150 µM; activity change, negative = inhibition: at the top concentration
How it was run: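 EPAC1 (100 nM) mixed with 250 nM RAP1B-BODIPY-GDP and 50 uM GDP; compounds in concentration series, 5 min at room temperature. Fluorescence (ex 480/em 540 nm) read every 5 min for 30 min; normalized to ATA control and DMSO.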

Sequence of UniProt O95398 (O95398 whole entry, looked up): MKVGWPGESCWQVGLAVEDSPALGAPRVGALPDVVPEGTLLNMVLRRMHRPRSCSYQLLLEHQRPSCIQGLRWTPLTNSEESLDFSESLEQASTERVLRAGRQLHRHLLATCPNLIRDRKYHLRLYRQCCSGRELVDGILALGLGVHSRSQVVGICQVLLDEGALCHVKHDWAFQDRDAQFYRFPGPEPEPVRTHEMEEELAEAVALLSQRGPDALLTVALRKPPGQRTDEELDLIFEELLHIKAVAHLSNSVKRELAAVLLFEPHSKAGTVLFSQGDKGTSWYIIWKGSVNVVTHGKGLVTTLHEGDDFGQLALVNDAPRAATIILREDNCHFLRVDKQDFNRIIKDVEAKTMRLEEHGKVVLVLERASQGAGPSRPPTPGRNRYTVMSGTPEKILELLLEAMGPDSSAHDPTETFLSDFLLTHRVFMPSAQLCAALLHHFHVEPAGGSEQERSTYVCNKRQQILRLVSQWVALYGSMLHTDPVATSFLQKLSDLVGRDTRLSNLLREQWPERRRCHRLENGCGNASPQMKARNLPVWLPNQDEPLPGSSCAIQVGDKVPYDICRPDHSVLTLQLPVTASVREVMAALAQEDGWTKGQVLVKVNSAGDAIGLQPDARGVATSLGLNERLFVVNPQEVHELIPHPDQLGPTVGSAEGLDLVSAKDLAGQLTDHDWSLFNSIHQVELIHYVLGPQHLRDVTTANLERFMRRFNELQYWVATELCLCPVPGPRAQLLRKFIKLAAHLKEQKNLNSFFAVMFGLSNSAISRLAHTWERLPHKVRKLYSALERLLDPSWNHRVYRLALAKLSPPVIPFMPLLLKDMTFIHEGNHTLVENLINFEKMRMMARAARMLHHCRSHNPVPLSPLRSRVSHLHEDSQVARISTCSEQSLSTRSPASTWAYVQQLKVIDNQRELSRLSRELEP

Activity change, negative = inhibition, inactive:
CN1CCN(c2ncc3nc(-c4cccs4)c(=O)n(CCC#N)c3n2)CC1 -7.87%
Cc1cc(=O)[nH]c2cc(N)ccc12 16.7%
N=c1nc(N2CCCCC2)cc(N)n1O
Cc1cnc(C(=O)NCc2c(C)ncc3c2CCN(C(=O)/C=C/c2cccs2)C3)cn1 0.438%
CCCCS(=N)(=O)CCC(N)C(=O)O (configuration not stated)
CC(=O)O[C@H]1CC2(C)[C@@H](C[C@@H](O)[C@H]3[C@@]4(C)CC[C@@H](O)[C@@H](C)[C@@H]4CC[C@@]32C)C1=C(CCC=C(C)C)C(=O)O (some centres not stated) -12.9% [at 75.8 µM]
COC(=O)C1CCCCN1Cc1ccc2c(c1)CN(C1CCSCC1)CCO2 (configuration not stated) 2.04%
COc1cccc(OC)c1OCCNCC1CSc2ccccc2O1 (configuration not stated) -10.9% [at 75.8 µM]
C[C@@H]1CN(c2c(F)c(F)c3c(=O)c(C(=O)O)cn(C4CC4)c3c2F)C[C@H](C)N1 6.35%
CCC(C)(C)C(=O)O[C@H]1C[C@@H](C)C=C2C=C[C@H](C)[C@H](CC[C@@H]3C[C@@H](O)CC(=O)O3)[C@H]21 -6.87% [at 75.8 µM]
CC(C)[C@H]1COCCS(=O)(=O)N1Cc1ccccc1 -1.45%
CN(C)c1ccc(-c2cc(N(C)Cc3ccco3)ncn2)cc1 -15.6%
COc1ccc(C2Sc3ccccc3N(CCN(C)C)C(=O)C2OC(C)=O)cc1 (configuration not stated) 11.3%
CCC(c1ccccc1)c1noc(CCN(CC)CC)n1 (configuration not stated) 54.6%
CCCc1nn(C)c2c(=O)[nH]c(-c3cc(S(=O)(=O)N4CCN(C)CC4)ccc3OCC)nc12
CN1CCN(c2ncc3ncc(=O)n(C4CC4)c3n2)CC1 -9.67%
COc1cc(O)c(C(=O)/C=C/c2ccccc2)c(OC)c1 11.3%
COc1cc(-c2noc(C)c2C#CC2(N)CCCCC2)cc(OC)c1OC 1.83%
CN(C)C(=O)c1ccc(-c2nc(NC3CCNCC3)c3ccccc3n2)cc1 5.81%
CCCCOC(=O)c1cc2c(cn1)[nH]c1ccccc12
O=C(O)COc1ccccc1/C=N/NC(=O)c1ccncc1 10.1%
NC(=O)c1ncn(C2OC(CO)C(O)C2O)c1N (configuration not stated) 9.96%
Cc1oc(-c2ccccc2NC(=O)C2CCCO2)nc1CNC(=O)c1[nH]c2c(C)ccc(C)c2c1C (configuration not stated) 7.17%
CC(/C=C/C=C(\C)C(=O)O[C@@H]1O[C@H](CO[C@@H]2O[C@H](CO)[C@@H](O)[C@H](O)[C@H]2O)[C@@H](O)[C@H](O)[C@H]1O)=C\C=C\C=C(C)\C=C\C=C(/C)C(=O)O[C@@H]1O[C@H](CO[C@@H]2O[C@H](CO)[C@@H](O)[C@H](O)[C@H]2O)[C@@H](O)[C@H](O)[C@H]1O 25%
c1ccc(CN2CCN(Cc3ccc4c(c3)CN(Cc3c[nH]c5ccccc35)CCO4)CC2)nc1 10.2%
Cc1ccc(CC(Cc2nc3ccccc3[nH]2)c2nc3ccccc3[nH]2)cc1 (configuration not stated) 1.41%
O=C(NCCc1ccccc1)[C@@H]1CC=C[C@@H]2CCN(Cc3ccc(Cl)c(Cl)c3)C(=O)[C@@H]21 -5.04%
Cc1ncc2c(c1CNC(=O)/C=C/c1cccs1)CCN(C(=O)C1CCCO1)C2 (configuration not stated) 5.33%
C1CCC(NC(=NC2C3CC4CC(C3)CC2C4)N2CCOCC2)CC1 (configuration not stated)
O=[N+]([O-])c1ccc(O)c2ncccc12 1.88%
COc1cccc(CNC(=O)c2c(OC)cc(=O)n3c2CCN(C(=O)C2CC24CCCCC4)CC3)c1 (configuration not stated) 11.3%
O=C(O)/C=C/c1ccc2c(c1)S(=O)(=O)N(C1CCCC1)[C@H]2CC(=O)O -10.5%
COc1cc(CNC(=O)CCCCCCC(C)C)ccc1O
CCOC(=O)/C=C1\CN(Cc2cc(OC)c(OC)c(OC)c2)S(=O)(=O)c2ccccc21 8.9%
Cc1nc2c([nH]1)c(=O)n(C)c(=O)n2Cc1ccco1
CC(NCCc1ccc(O)cc1)C(O)c1ccc(O)cc1 (configuration not stated) 7.58%
COc1ccc(NC(=O)N2CC[C@@]3(CCCN(C(=O)c4cnccn4)C3)C2)cc1 18.1%
FC(F)(F)c1ccccc1-c1cncnc1NCc1cccnc1 3.43%
CC(C)C(=O)NC(C)c1nnc2n1CCN(Cc1cccc3ncccc13)CC2 (configuration not stated) -5.13%
Cc1cnc(CNc2ncncc2-c2cccnc2)cn1 11.5%
Cc1c(C(=O)NCCN2CCC(c3ccccc3)CC2)cnn1-c1nccc(-c2cccs2)n1 -18.4%
Cc1cccc(/C=C\c2ccccc2)n1 -4.13%
COCCn1c(=O)c(-c2ccc(F)cc2)nc2cnc(Oc3ccc(OC)cc3)nc21 -13.8%
CCC1(C)CC(=O)NC1=O (configuration not stated)
CC(=O)Nc1ccc(OC(C)=O)cc1 11.8%
CCCNC(C)(C)COC(=O)c1ccccc1 0.817%
O=C(O)C[C@H]1c2ccccc2S(=O)(=O)N1c1ccccc1 22%
O=c1c(-c2ccc(F)cc2)nc2cnc(N3CCOCC3)nc2n1C1CC1 10.8%
CCc1nc2cc(C(=O)N(C)CC3CCCN(C)C3)cc(NC(=O)c3ccccc3OC)c2n1C (configuration not stated) 22.1%
FC(F)(F)c1cc(CN2CC[C@@]3(CCCNC3)C2)cc(C(F)(F)F)c1 4.23%
O=C(O)Cc1cccc2ccccc12
COCC(=O)N1CCC2(CCCN(Cc3cc(C(F)(F)F)cc(C(F)(F)F)c3)C2)CC1 2.56%
CC(C)[C@H](NC(=O)OCc1ccccc1)C(=O)N[C@H](C=O)Cc1ccccc1 (Cbz-Val-Phe-aldehyde)
O=C(c1cnccn1)N1CCC2(CCN(Cc3nccs3)CC2)CC1 10.5%
OC[C@H]1NC[C@@H](O)[C@@H]1O 4.26% [at 75.8 µM]
NC(=S)c1ccc[n+]([C@@H]2O[C@@H](COP(=O)([O-])OP(=O)(O)OC[C@H]3O[C@@H](n4cnc5c(N)ncnc54)[C@H](OP(=O)(O)O)[C@@H]3O)C(O)C2O)c1 (some centres not stated) 4.05% [at 75.8 µM]
Cc1c(C(=O)N(C)C2CCOC2)sc2ncnc(NCc3ccc4c(c3)OCO4)c12 (configuration not stated) 17.6%
O=S(=O)(c1cccc2cnccc12)N1CCCNCC1
COc1cc2nc(N3CCCN(C)CC3)nc(NC3CCN(Cc4ccccc4)CC3)c2cc1OC 3.7% [at 75.8 µM]
O=c1[nH]/c(=C/c2ccc3c(c2)OCO3)c(=O)[nH]/c1=C/c1ccc2c(c1)OCO2 10.6%
COc1ccc(CN2CCCC(c3nc(-c4ccncc4)ncc3-c3ccccc3)C2)cc1OC (configuration not stated) 17.4%
Nc1nc2c(nc(Br)n2[C@@H]2O[C@H]3COP(=O)(O)O[C@H]3[C@@H]2O)c(=O)[nH]1 -21.7%
